# Data published in PubChem BioAssay AID504832 (National Center for Advancing Translational Sciences (NCATS), 2011).
# The campaign covered roughly 310,000 compounds. About 18,000 (5.8%) were called active. Inconclusive results, whose numbers are uncertain, are shown with a selection of clear calls. Calls come from the whole dose curve; as a rule, active = well fitted inhibition curve with a large enough effect; inconclusive = small, poorly fitted or top-dose-only effect, or another doubt; inactive = no such curve, though single readings can be large or run the other way. No potency is given beside an inconclusive call; the fits are too rough.
# Experiment: Primary qHTS for delayed death inhibitors of the malarial parasite plastid, 48 hour incubation
# Settings: P. falciparum luciferase growth in erythrocytes; series mostly up to 28.7 µM; activity change, negative = inhibition: at the top concentration
# Procedure, shortened: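 Luciferase-expressing P. falciparum in infected erythrocytes (2% hematocrit, 0.1% parasitemia final) in RPMI 1640/0.5% Albumax were exposed to compound for 48 hours at 37 C, 5% CO2; growth read as luminescence.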
# % is set by controls: 0 for no effect and ±100 for the full control effect; potency is the fitted concentration of half-maximal effect; tags give direction and shape of the fitted curve.
SMILES,Potency,"activity change, negative = inhibition"
COc1cccc2cc(C(=O)Nc3ccccc3C)/c(=N/NS(=O)(=O)c3ccccc3)oc12,"inconclusive [inhibitor, partial curve, poor fit]",
NC(=S)N/N=C/c1ccc(-c2ccccc2)o1,"inconclusive [inhibitor, partial curve, poor fit]",
CC1=CC(C)(C)[N+](C)(C)c2ccc(C)cc21,active: 2.62 µM,
CCOc1ccc(NC(=O)COC(=O)c2ccc3c(c2)OCO3)cc1,,inactive: 30.6%
COc1ccc(Cl)cc1NC(=O)CCS(=O)(=O)c1ccc(C)cc1,,inactive: 10.1%
C#CCOCCOCCOCCNc1nc(N2CCN(C(=O)[C@H](CCC(=O)O)n3cc(C(N)CC(C)C)nn3)CC2)nc(N2CCN(C(=O)[C@H](CCC(=O)O)n3cc(C(N)[C@H](C)CC)nn3)CC2)n1 (stereo partly drawn),"inconclusive [inhibitor, full curve, poor fit]",
CC(=O)c1c(C)oc2c1C(=O)c1ccccc1C2=O,"inconclusive [inhibitor, single point]",
O=C(CSc1nc2[nH]ncc2c(=O)[nH]1)N1CCCCC1,,inactive: 11.3%
CSc1snnc1-c1ccccc1,"inconclusive [inhibitor, single point]",
CC1=CC2=NC(=O)/C(=C\c3cccn3CCOc3cc(C)ccc3C)C(=N)N2O1,"inconclusive [inhibitor, partial curve, poor fit]",
Cc1cc(Cl)ccc1OCC(=O)NNC(=O)c1cnccn1,"inconclusive [inhibitor, partial curve, poor fit]",
CCc1nc(SCCO)c2oc3ccccc3c2n1,"inconclusive [inhibitor, full curve, poor fit]",
CN(C)CC[C@@H](c1ccc(Br)cc1)c1ccccn1,"inconclusive [inhibitor, partial curve, poor fit]",
CCN1CCN(CCCNC(=O)c2cc3cc4ccc(OC)cc4nc3o2)CC1,active: 13.1 µM,
CC(=O)Nc1ccc(C(=O)N/C(=C\c2ccccc2)C(=O)Nc2cccc(C(=O)O)c2)cc1,"inconclusive [inhibitor, full curve, poor fit]",
COCCNC(=O)C(C(=O)c1ccc(F)cc1)n1cc(C)ccc1=O (stereo not drawn),,inactive: 3.98%
COc1ccccc1/C=C/c1nc(S(=O)(=O)c2ccccc2)c(NCCN(C)C)o1,"inconclusive [inhibitor, partial curve]",
CC[C@@H](C)[C@H](CN[C@H](CNC)C(C)C)NC[C@@H](C)c1ccc(CC(C)C)cc1,"inconclusive [inhibitor, full curve]",
